# Assay results as given in PubChem BioAssay AID1347165 (National Center for Advancing Translational Sciences (NCATS), 2019).
# Screen size: about 220,000 compounds; about 5,700 (2.6%) were called active. The shares of active, inactive and inconclusive entries below differ from those in the screen. Calls follow the shape of the dose curve; as a rule, active = well fitted inhibition curve with a large enough effect; inconclusive = small, poorly fitted or top-dose-only effect; inactive = no such curve, though single readings can be large or run the other way. Where the call is inconclusive, the potency comes from a doubtful curve fit.
# Molecular target: Lysine-specific demethylase 5B (Homo sapiens) (UniProt Q9UGL1)
# Sequence of UniProt Q9UGL1 (Q9UGL1 whole entry, looked up): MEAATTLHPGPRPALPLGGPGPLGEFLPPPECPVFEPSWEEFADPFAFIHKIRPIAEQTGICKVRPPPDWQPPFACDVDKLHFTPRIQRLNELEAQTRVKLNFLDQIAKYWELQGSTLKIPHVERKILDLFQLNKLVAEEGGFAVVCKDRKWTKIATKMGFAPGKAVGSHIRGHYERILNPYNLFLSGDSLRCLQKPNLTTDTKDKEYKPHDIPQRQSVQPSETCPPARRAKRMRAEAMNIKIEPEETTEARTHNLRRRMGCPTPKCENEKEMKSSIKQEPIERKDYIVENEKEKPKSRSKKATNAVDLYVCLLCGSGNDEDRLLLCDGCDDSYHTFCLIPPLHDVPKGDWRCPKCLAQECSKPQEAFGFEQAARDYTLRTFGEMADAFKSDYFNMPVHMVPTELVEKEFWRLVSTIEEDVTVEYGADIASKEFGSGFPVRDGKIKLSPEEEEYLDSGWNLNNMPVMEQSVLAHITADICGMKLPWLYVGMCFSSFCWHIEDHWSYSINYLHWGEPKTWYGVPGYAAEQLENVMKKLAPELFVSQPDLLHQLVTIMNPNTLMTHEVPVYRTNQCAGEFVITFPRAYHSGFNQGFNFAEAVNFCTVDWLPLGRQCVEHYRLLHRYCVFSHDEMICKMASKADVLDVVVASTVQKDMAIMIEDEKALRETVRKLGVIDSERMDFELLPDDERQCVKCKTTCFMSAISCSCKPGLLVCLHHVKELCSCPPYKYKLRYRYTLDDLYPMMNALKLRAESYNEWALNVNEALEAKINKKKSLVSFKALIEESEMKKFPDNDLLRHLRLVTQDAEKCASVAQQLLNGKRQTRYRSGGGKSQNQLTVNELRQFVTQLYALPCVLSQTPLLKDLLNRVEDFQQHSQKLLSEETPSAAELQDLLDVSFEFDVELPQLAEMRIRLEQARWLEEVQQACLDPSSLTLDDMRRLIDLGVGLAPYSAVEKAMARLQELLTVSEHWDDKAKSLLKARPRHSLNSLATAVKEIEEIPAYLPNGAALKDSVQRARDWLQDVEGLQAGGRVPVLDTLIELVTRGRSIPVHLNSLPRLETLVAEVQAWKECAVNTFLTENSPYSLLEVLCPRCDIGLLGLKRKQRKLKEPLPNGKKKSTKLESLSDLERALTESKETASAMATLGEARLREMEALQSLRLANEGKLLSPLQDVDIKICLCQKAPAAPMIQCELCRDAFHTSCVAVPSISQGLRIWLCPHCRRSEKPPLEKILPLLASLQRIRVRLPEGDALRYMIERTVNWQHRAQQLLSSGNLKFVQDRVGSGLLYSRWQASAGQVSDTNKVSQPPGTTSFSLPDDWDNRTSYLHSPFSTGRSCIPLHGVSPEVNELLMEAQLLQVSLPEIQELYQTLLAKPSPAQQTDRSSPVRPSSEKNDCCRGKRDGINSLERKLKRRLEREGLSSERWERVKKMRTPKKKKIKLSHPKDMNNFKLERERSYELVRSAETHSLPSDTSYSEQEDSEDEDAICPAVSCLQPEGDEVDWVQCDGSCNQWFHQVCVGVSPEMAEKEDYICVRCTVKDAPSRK
# Assay: Primary screen for KDM5B Histone Demethylases FDH-coupled qHTS; also: nearly all actives have a fitted effect of over 70% in size; as to activity change, negative = inhibition: 0% is about no effect
# Details: FDH-coupled NADH fluorescence (FDH is formaldehyde dehydrogenase); activity change, negative = inhibition: at 57.7 µM (top of the series) unless noted
# Outline: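 Compound dilutions met 200 nM (final) KDM5BΔAP for 10 min at room temperature before substrate addition. The substrate mix held 12.5 µM H3K4me3 with cofactors 25 µM α-ketoglutarate and 50 µM Fe²⁺. NADH signal gain over 30 min defined activity.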
# Potency is read from the fitted curve at half-maximal effect; tags tell the direction and shape of the fitted curve.
Structure (SMILES),"activity change, negative = inhibition",Potency
CCc1cccc2c(/C=C(/C#N)c3nc4cc(C)c(C)cc4[nH]3)c[nH]c12,inactive: 15.1%,
Cc1cccc(-n2nc(-c3c(C)nc4scc(CC(=O)N5CCCCC5)n4c3=O)cc2C)c1C,,"inconclusive: 28.2 µM [inhibitor, partial curve, poor fit]"
O=C(NC1CC1)c1ccc(Cn2c(SCc3cccc(F)c3)nc3cccnc32)cc1,,"inconclusive: 25.1 µM [inhibitor, partial curve, poor fit]"
COC(=O)C1=CNC=C(C(=O)OC)C1c1ccc(Cl)c(Cl)c1,,"inconclusive: 25.1 µM [inhibitor, partial curve, poor fit]"
O=C(NCC(c1cccnc1)N1CCc2ccccc2C1)c1ccc(F)c(F)c1 (stereo unspecified),inactive: 17.2%,
Cc1ccc(NC2=C(c3ccc(C(F)(F)F)cc3)C(=O)c3ccccc32)cc1C,,"inconclusive: 28.2 µM [inhibitor, partial curve, poor fit]"
CN(Cc1cccc(F)c1)C(=O)COc1ccc2c(C(F)(F)F)cc(=O)oc2c1,,"inconclusive: 25.1 µM [inhibitor, partial curve, poor fit]"
CCc1ccc(C(=O)Nc2sc(C)c(C)c2C#N)s1,,"inconclusive: 8.91 µM [inhibitor, full curve, poor fit]"
Cc1ccc(S(=O)(=O)c2nc(-c3ccccc3F)oc2N2CCCCC2)cc1,,"inconclusive: 35.5 µM [inhibitor, partial curve, poor fit]"
COc1ccc(C(=O)Nc2ccc(NS(=O)(=O)c3ccc4c(c3)OCCCO4)cc2)cc1,inactive: 6.77%,
O=C(NC1CCN(Cc2ccccc2)CC1)c1cccc2c1CCN2C(=O)c1ccccc1,inactive: -0.607%,
CC(=O)c1ccc(NC(=O)N[C@H]2CO[C@H]3[C@@H]2OC[C@@H]3n2nnnc2Oc2cccc(N(C)C)c2)cc1,inactive: 20%,
CC(C(=O)N(C)CC(=O)Nc1ccccc1C(F)(F)F)N1CCCCC1 (stereo unspecified),inactive: 1.36%,
OC1(c2csc(CN3CCc4ccccc4C3)n2)CCN(C2CCOCC2)CC1,,"inconclusive: 25.1 µM [inhibitor, partial curve]"
CCOC(=O)C1CCN(C(=O)Cc2cccn2-c2ccc(F)cc2)CC1,,"inconclusive: 28.2 µM [inhibitor, partial curve, poor fit]"
CC(C)(C)OC(=O)COc1ccc2cc(-c3ccccc3)c(=O)oc2c1,,"inconclusive: 1.78 µM [inhibitor, partial curve, poor fit]"
O=S(=O)(N1CCOCC1)N1CCOC(CCCc2ccccc2)C1 (stereo unspecified),,"inconclusive: 35.5 µM [inhibitor, single point]"
O=C(NCc1cccc(Cl)c1)c1cc2c(s1)-c1ccccc1OC2,,"inconclusive: 35.5 µM [inhibitor, partial curve, poor fit]"
COCCN(Cc1ccc(C)cc1)Cc1cc(=O)n2c3c(sc2n1)CCCC3,,"inconclusive: 25.1 µM [inhibitor, partial curve, poor fit]"
CCc1c(C)sc2c1CCN(Cc1cccc(F)c1)C2c1ccccc1 (stereo unspecified),,"inconclusive: 28.2 µM [inhibitor, partial curve, poor fit]"
O=C(O)/C=C\C(=O)NC(Cc1ccccc1)C(=O)O (stereo unspecified),inactive: 2.3%,

Structure (SMILES),"activity change, negative = inhibition",Potency
COc1ccc(Cl)cc1Nc1sc(C(=O)c2ccccc2)c(N)c1C(=O)Nc1ccccc1,,"inconclusive: 20 µM [inhibitor, partial curve, poor fit]"
COc1cc(OC)cc(-c2onc(C)c2C(=O)NCCC(c2ccccc2)c2ccccc2)c1,,active: 31.6 µM
COc1ccccc1/C=C/CN1CC[C@@H](c2ccc3c(c2)OCO3)[C@H](O)C1,inactive: -11.9%,
COc1ccc2c(CC(=O)NC(Cc3ccc(Cl)cc3)C(=O)O)cc(=O)oc2c1C (stereo unspecified),,"inconclusive: 14.1 µM [inhibitor, partial curve, poor fit]"
N#Cc1c(N2CCN(C(=O)C(=O)NCC3CCCO3)CC2)nc(-c2ccccc2)c2c1CCCC2 (stereo unspecified),,"inconclusive: 28.2 µM [inhibitor, single point]"
COc1ccccc1C(=O)NCc1nnc2cc(-c3nc(C4CC4)no3)ccn12,,active: 28.2 µM
CCc1ccc(NC(=O)c2ccc3c(c2)N(C)C2CCCCCN2C3=O)cc1 (stereo unspecified),,"inconclusive: 35.5 µM [inhibitor, partial curve, poor fit]"
CC(C)c1ccc(NC(=O)c2cc3c(s2)-c2ccccc2SC3)cc1,,"inconclusive: 35.5 µM [inhibitor, partial curve, poor fit]"
NC(N)=NC(N)=Nc1ccc(Br)cc1,,inactive
O=C1CC(c2ccccc2)N(C(=O)C2CC2)CCCN(C(=O)c2c[nH]c3ccccc23)CCN1 (stereo unspecified),,"inconclusive: 14.1 µM [inhibitor, partial curve, poor fit]"
CCCCn1c(=O)[nH]c(=O)c2c1nc(CCC(=O)NCCCO)n2CC(C)C,inactive: 1.17%,
CCOC(=O)c1c(C)[nH]c(CCC(=O)NCCCN2CCN(c3ccc(F)cc3)CC2)c1C,,"inconclusive: 25.1 µM [inhibitor, partial curve, poor fit]"
CCOC(=O)c1ccccc1NC(=O)Cn1cc(C(=O)c2cccc(OC)c2)c(=O)c2ccc(C)nc21,,"inconclusive: 25.1 µM [inhibitor, partial curve, poor fit]"
CC1(C(=O)N2CCc3ccccc3C2)CCOCC1,,"inconclusive: 39.8 µM [inhibitor, partial curve, poor fit]"
CC(C)c1nncn1C1CCN(S(=O)(=O)c2cccc(F)c2)CC1,inactive: -10.5%,
COc1ccc(-c2cnc(C)o2)cc1S(=O)(=O)Nc1ccc(F)cc1,inactive: 18.5%,
Cc1ccc(-c2ccc3nnc(CNC(=O)c4cccnc4)n3n2)cc1C,,active: 31.6 µM
CN(C)C[C@@H]1CN(Cc2ccncc2)C[C@H]1NC(=O)c1ccc(Cl)cc1,,active: 20 µM
CCC(=O)N1CCN(c2nc(-c3ccco3)c3c(c2C#N)CC(C)(C)SC3)CC1,,"inconclusive: 25.1 µM [inhibitor, partial curve, poor fit]"
Cc1cc(C)c2nc(-c3ccncc3)cc(C(=O)N3CCN(Cc4ccccc4Cl)CC3)c2c1,,"inconclusive: 20 µM [inhibitor, single point]"
